Experimental data taken from the supplement of paper PMC12217912.
The list shows a part of the results. The full chains were built here from the parent and the listed change. Values near 0.05 are background.

B1: TEV protease; numbered along this chain (parent)
chain: MGESLFKGPRDYNPISSSICHLTNESDGHTTSLYGIGFGPFIITNKHLFRRNNGTLVVQSLHGVFKVKDTTTLQQHLVDGRDMIIIRMPKDFPPFPQKLKFREPQREERICLVTTNFQTKSMSSMVSDTSCTFPSGDGIFWKHWIQTKDGQCGSPLVSTRDGFIVGIHSASNFTNTNNYFTSVPKNFMELLTNQEAQQWVSGWRLNADSVLWGGHKVFMVKPEEPFQPVKEATQL

Variants of: B1
Experiment: raw area under fraction-flipped curve 0-4 h after induction (AUC4h, not background-subtracted), DNA-recorder readout of cleavage of the substrate (dimensionless); higher = more cleavage of the substrate by the protease variant
Settings: temperature: 34 °C; time window: 0-4 h after rhamnose induction
Experimental: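 In vivo DNA recorder in E. coli TOP10(DE3) ΔrhaA at 34 °C. Each TEVp single-site mutant (parent TEVp 0) is paired with a single-site variant of the 7-mer TEVs (canonical ENLYFQ|S). The substrate sits between flexible linkers in a Bxb1-sfGFP-TEVs-SsrA fusion, so cleavage stabilises Bxb1 and speeds flipping of a recombination array, read by NGS. The value is the raw area under the fraction-flipped curve over 0-4 h after rhamnose induction (AUC4h), with ≥20 reads per time point. It is not background-subtracted; inactive controls average about 0.047.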
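Further: Bxb1 expression induced with 0.2% (w/v) L-rhamnose at OD600 near 0.5, cultures sampled hourly, flipped fraction per protease–substrate barcode pair counted by paired-end Illumina sequencing.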

Variant | area with substrate ECLYFQS | area with substrate EDLYFQS | area with substrate EELYFQS | area with substrate EHLYFQS | area with substrate EILYFQS | area with substrate EKLYFQS | area with substrate ELLYFQS | area with substrate EMLYFQS | area with substrate EPLYFQS | area with substrate ESLYFQS | area with substrate EVLYFQS | area with substrate EWLYFQS | area with substrate EFLYFQS | area with substrate EGLYFQS | area with substrate EQLYFQS | area with substrate ERLYFQS | area with substrate EYLYFQS | area with substrate ETLYFQS
K90P | 0.111 | 0.0985 | 0.117 | 0.0925 | 0.088 | 0.112 | 0.0689 | 0.135 | 0.103 | 0.111 | 0.115 | 0.11 |  |  |  |  |  | 
K90S | 0.0961 | 0.125 | 0.0664 | 0.155 | 0.0647 | 0.0615 |  |  |  | 0.107 | 0.0938 |  | 0.0905 | 0.104 | 0.117 | 0.0954 |  | 
K90N | 0.104 |  | 0.0729 |  | 0.0776 | 0.0902 |  | 0.157 |  | 0.0866 | 0.105 | 0.101 |  | 0.107 | 0.116 |  |  | 
F38H | 0.0921 | 0.0961 | 0.103 |  | 0.0739 | 0.0957 |  | 0.118 | 0.128 | 0.106 |  |  |  | 0.0926 | 0.119 | 0.0897 |  | 
N53Y | 0.0656 | 0.078 |  | 0.077 | 0.0794 | 0.0723 | 0.0832 | 0.0838 |  | 0.0678 |  | 0.0635 | 0.0605 | 0.0711 | 0.0797 | 0.0823 | 0.0899 | 
N53F | 0.085 | 0.0996 |  | 0.0619 | 0.061 | 0.085 | 0.0817 |  | 0.0867 | 0.0693 |  |  | 0.108 |  | 0.0862 | 0.0733 |  | 
N53W | 0.0727 | 0.109 | 0.0866 | 0.0896 | 0.0862 | 0.0888 | 0.0588 | 0.0729 | 0.0839 | 0.0812 | 0.0526 |  |  |  | 0.0835 | 0.0742 | 0.0801 | 0.0792
H76K | 0.0972 |  | 0.0925 |  |  | 0.0878 | 0.0707 | 0.0914 |  | 0.113 | 0.0548 |  |  |  | 0.114 | 0.0995 |  | 
H76V | 0.149 | 0.145 | 0.119 | 0.12 | 0.0928 |  |  |  |  | 0.0983 |  |  |  |  | 0.103 |  |  | 
P93T | 0.101 | 0.143 |  | 0.0882 | 0.15 | 0.109 |  |  | 0.118 |  |  |  |  |  |  |  |  | 
P93V | 0.123 |  | 0.107 |  |  | 0.0921 |  | 0.124 | 0.114 | 0.112 | 0.0506 | 0.0901 |  | 0.08 | 0.0832 | 0.101 |  | 
D69Y | 0.113 | 0.0927 |  |  | 0.102 | 0.134 |  |  |  | 0.0666 |  |  | 0.0648 |  | 0.101 | 0.09 |  | 
D82P | 0.0542 | 0.064 | 0.0609 |  | 0.0467 |  |  | 0.0538 |  |  | 0.0509 |  |  | 0.0554 |  |  |  | 
P40V | 0.0697 | 0.145 | 0.125 | 0.121 | 0.106 | 0.101 |  | 0.125 |  | 0.0993 | 0.094 | 0.0992 | 0.11 | 0.112 | 0.118 |  |  | 
G80S | 0.123 |  | 0.123 |  |  |  |  | 0.115 |  |  |  | 0.0999 | 0.0888 | 0.0778 | 0.0986 | 0.105 |  | 
R81Y | 0.0813 | 0.0939 | 0.0995 | 0.0796 | 0.0746 | 0.085 | 0.0827 |  |  | 0.0797 | 0.0818 | 0.0708 |  | 0.0751 | 0.0753 |  | 0.0908 | 

Variant | area with substrate ECLYFQS | area with substrate EDLYFQS | area with substrate EELYFQS | area with substrate EHLYFQS | area with substrate EILYFQS | area with substrate EKLYFQS | area with substrate ELLYFQS | area with substrate EMLYFQS | area with substrate EPLYFQS | area with substrate ESLYFQS | area with substrate EVLYFQS | area with substrate EWLYFQS | area with substrate EFLYFQS | area with substrate EGLYFQS | area with substrate EQLYFQS | area with substrate ERLYFQS | area with substrate EYLYFQS | area with substrate ETLYFQS
R81W | 0.0755 | 0.0911 |  |  |  | 0.0706 |  | 0.0643 | 0.0696 | 0.0789 | 0.0887 |  | 0.0728 |  |  | 0.0795 |  | 
D91I | 0.102 | 0.129 |  |  | 0.0751 | 0.109 |  | 0.107 |  | 0.118 |  |  |  |  | 0.118 | 0.12 |  | 
R50M | 0.128 | 0.172 |  | 0.154 | 0.127 | 0.142 | 0.16 | 0.165 | 0.16 | 0.159 |  | 0.12 |  |  | 0.135 | 0.167 | 0.147 | 
R50G | 0.094 |  | 0.138 | 0.133 | 0.148 |  |  |  | 0.132 | 0.116 | 0.0623 | 0.0827 |  | 0.0927 | 0.115 | 0.131 |  | 
Q75V | 0.0789 |  | 0.103 |  | 0.0662 | 0.0611 |  |  |  | 0.0836 | 0.102 |  |  |  | 0.127 | 0.0723 |  | 0.106
V67N | 0.0731 | 0.0762 |  |  | 0.0478 | 0.0739 |  |  |  | 0.0778 | 0.0762 |  |  | 0.0661 |  |  |  | 0.0537
V67K | 0.0457 |  | 0.063 |  | 0.0473 | 0.0695 | 0.0681 |  | 0.0541 | 0.0736 | 0.0515 |  |  |  | 0.0775 |  | 0.0652 | 0.0814
V67P | 0.0447 | 0.0543 |  | 0.0435 | 0.0387 | 0.0385 | 0.0383 |  | 0.0474 | 0.048 | 0.0424 | 0.0349 | 0.0424 | 0.0642 | 0.0582 | 0.0348 | 0.0526 | 
V67F | 0.0363 |  | 0.0979 |  | 0.0864 |  |  | 0.0802 | 0.101 | 0.0834 | 0.0834 | 0.0832 |  | 0.0843 |  |  |  | 0.092
G54E | 0.0672 |  | 0.0902 | 0.0842 | 0.0759 | 0.0694 |  | 0.0863 | 0.0754 | 0.055 | 0.0699 | 0.0793 | 0.0534 | 0.0576 | 0.0752 | 0.0439 | 0.0715 | 
L73K | 0.0437 | 0.0495 | 0.0535 |  | 0.0326 |  | 0.0626 | 0.0415 | 0.0598 |  | 0.0552 |  |  |  | 0.0414 | 0.06 | 0.0644 | 
L73N | 0.0502 | 0.0696 |  |  |  | 0.0494 | 0.0504 |  |  |  |  | 0.06 |  | 0.0474 | 0.0608 |  | 0.0566 | 0.0474
Q74Y | 0.0982 | 0.094 |  |  |  | 0.116 |  | 0.0944 | 0.159 |  | 0.084 |  |  |  | 0.125 |  |  | 0.102
Q74K | 0.114 | 0.134 | 0.134 | 0.0866 |  | 0.0956 |  |  | 0.11 | 0.0838 | 0.101 |  |  | 0.0749 | 0.122 |  |  | 
G37H | 0.0898 |  |  |  |  | 0.0864 |  |  | 0.105 | 0.0889 | 0.0721 | 0.0736 | 0.0994 | 0.0824 | 0.0831 | 0.0941 | 0.0869 | 
L77Q | 0.0261 | 0.0651 | 0.0661 |  | 0.0694 | 0.0711 |  | 0.0753 | 0.0701 | 0.0654 |  | 0.0652 |  | 0.0576 | 0.0742 | 0.0674 |  | 
